The values below come from publication PMC6260146, “Complement Factor H and Apolipoprotein E Participate in Regulation of Inflammation in THP-1 Macrophages” (Frontiers in Immunology, 2018).

This test addresses T1, complement Factor H (human, UniProt P08603 19-1231, NT647 (N-hydroxysuccinimide-reactive Red dye) where used as NT647-FH; unlabelled where used as inhibitor or enhancer).
T1 construct: complement factor H, 20 domains; The supplier is named for the unlabelled FH of the dilution series; Labelled in a3, unlabelled in a5 and a6; also called FH; NT647-FH; source: bought: Complement technologies
T1 sequence (P08603 19-1231): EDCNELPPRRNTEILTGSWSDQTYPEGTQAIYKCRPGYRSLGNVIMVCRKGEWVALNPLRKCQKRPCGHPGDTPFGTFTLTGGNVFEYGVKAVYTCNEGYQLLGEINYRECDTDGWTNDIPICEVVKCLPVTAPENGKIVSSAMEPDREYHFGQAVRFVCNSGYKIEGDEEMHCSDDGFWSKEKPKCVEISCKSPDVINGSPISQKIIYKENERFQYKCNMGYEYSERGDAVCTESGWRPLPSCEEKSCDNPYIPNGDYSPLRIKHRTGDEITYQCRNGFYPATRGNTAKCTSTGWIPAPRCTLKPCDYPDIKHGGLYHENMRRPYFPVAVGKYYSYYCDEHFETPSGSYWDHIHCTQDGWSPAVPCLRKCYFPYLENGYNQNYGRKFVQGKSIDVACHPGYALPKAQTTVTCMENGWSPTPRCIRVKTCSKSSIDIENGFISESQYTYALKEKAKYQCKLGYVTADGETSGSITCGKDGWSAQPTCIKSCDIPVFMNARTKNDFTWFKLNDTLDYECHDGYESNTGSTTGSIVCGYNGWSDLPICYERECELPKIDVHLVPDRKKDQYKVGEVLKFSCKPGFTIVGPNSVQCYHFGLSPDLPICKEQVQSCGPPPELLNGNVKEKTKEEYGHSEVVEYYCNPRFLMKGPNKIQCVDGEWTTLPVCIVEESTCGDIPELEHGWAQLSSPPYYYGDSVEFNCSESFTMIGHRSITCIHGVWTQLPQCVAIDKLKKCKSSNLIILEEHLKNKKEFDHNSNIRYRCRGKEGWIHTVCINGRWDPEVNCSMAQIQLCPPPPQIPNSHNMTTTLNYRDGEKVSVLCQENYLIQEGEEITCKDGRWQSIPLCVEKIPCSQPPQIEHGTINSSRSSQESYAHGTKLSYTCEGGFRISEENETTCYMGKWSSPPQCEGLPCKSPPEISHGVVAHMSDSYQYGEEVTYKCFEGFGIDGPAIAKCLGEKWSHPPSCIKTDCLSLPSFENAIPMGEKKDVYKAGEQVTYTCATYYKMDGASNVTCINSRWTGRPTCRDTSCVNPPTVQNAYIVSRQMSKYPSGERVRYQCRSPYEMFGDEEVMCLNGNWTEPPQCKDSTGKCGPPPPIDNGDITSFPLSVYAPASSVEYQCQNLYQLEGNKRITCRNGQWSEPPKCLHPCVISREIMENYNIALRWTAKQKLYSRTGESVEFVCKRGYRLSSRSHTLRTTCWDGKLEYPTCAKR
In words: flow cytometry on cells; inhibition of NT647-FH (200 nM) binding to CR3 expressing U937 cells by 1.5 μM unlabelled apoE2, apoE3 or apoE4, 4°C; the pair apoE with FH. The following applies: both partners purified. A general note: In flow cytometry, cells or beads pass a laser one at a time.

B1: recombinant apolipoprotein E2 (natural protein)
chain: not shown
modifications: NT647 (N-hydroxysuccinimide-reactive Red dye) where used as NT647-apoE; unlabelled as inhibitor
notes: apolipoprotein E, isoform apoE2; also called apoE2; apoE
On to B1, for which the binding result is “binds”.
